Columns and labels:
pBR322 plasmid DNA [1] = conditions: 200 μM, 30 min at 37°C followed by irradiation at 365 nm for 60 min
HCT116 cells = experiment: MTT cell viability assay, HCT116; format: cell-based; conditions: Homo sapiens, HCT-116, 20 min; HCT116, illumination at 365 nm for 20 min
Experimental: (§1) The cytotoxicity of 3b and 3c against MDA-MB-231 and HCT116 cell lines, with and without illumination, was assessed using the MTT test. Two human cancer cell lines, including MDA-MB-231 and HCT116 cell lines, were purchased from the National Research Centre, Dokki, Cairo, Egypt. Briefly, 96-well plates were seeded with cells (5 × 10^3 cells/well) and left overnight. The compounds dissolved in DMSO were then applied to the cells following the serial dilution procedure in the range of 0–100 µM. The cells were then incubated for an additional 20 h. Subsequently, the cells were exposed to UV light for 20 min at a distance of 10 cm. To study the effects of the illumination, a control plate was created under the same circumstances but without illumination. The two plates were incubated for a further 20 h. After that, PBS was used to wash the cells and MTT solution (0.5 mg/ml) was added. To dissolve the generated formazan crystals, the solution was replaced with 100 µl of DMSO per well after 4 h of incubation. An ELISA reader operating at 492 nm was used to measure the absorbance after 15 min of plate shaking. By relating the absorbance of treated and negative control cells, the relative cell viability was calculated. GraphPad Prism software was used to calculate the half inhibitory concentration (IC50). […]

pBR322 plasmid DNA [2] = experiment: Mechanistic pBR322 DNA photo-cleavage with radical scavengers; format: biochemical; conditions: 200 μM compound, irradiation at 365 nm; for photocleavage activity in the presence of DMSO (hydroxyl radical scavenger): DMSO 200 mM; for photocleavage activity in the presence of KI (superoxide radical scavenger): KI 200 mM; for photocleavage activity in the presence of NaN3 (singlet oxygen scavenger): NaN3 200 mM
MDA-MB-231 cells = experiment: MTT cell viability assay, MDA-MB-231; format: cell-based; conditions: Homo sapiens, 20 min; MDA-MB-231, illumination at 365 nm for 20 min
Experimental: as §1

Molecule: 2-Cyano-3-(1,3-diphenyl-1H-pyrazol-5-yl)-N-(thiazol-2-yl)acrylamide [Compound 3a]
- DNA photocleavage activity (pBR322 plasmid DNA [1]): non-detectable DNA cleavage

Molecule: N#CC(=Cc1cn(-c2ccccc2)nc1-c1cccs1)C(=O)Nc1nccs1 [Compound 3b, 2-Cyano-3-(1-phenyl-3-(thiophen-2-yl)-1H-pyrazol-4-yl)-N-(thiazol-2-yl)acrylamide]
- IC50 (HCT116 cells): 23 µM
- photocleavage activity in the presence of DMSO (hydroxyl radical scavenger) (pBR322 plasmid DNA [2]): did not influence
- photocleavage activity in the presence of KI (superoxide radical scavenger) (pBR322 plasmid DNA [2]): total hindrance
- photocleavage activity in the presence of NaN3 (singlet oxygen scavenger) (pBR322 plasmid DNA [2]): total hindrance
- IC50 (MDA-MB-231 cells): 30 µM
- DNA photocleavage activity (pBR322 plasmid DNA [1]): remarkable photocleavage activity

Molecule: N#CC(=Cc1cn(-c2ccccc2)nc1-c1cccnc1)C(=O)Nc1nccs1 [Compound 3c, 2-Cyano-3-(1-phenyl-3-(pyridin-3-yl)-1H-pyrazol-4-yl)-N-(thiazol-2-yl)acrylamide]
- IC50 (HCT116 cells): 25 µM
- photocleavage activity in the presence of DMSO (hydroxyl radical scavenger) (pBR322 plasmid DNA [2]): did not influence
- photocleavage activity in the presence of KI (superoxide radical scavenger) (pBR322 plasmid DNA [2]): total hindrance
- photocleavage activity in the presence of NaN3 (singlet oxygen scavenger) (pBR322 plasmid DNA [2]): total hindrance
- IC50 (MDA-MB-231 cells): 9 µM
- DNA photocleavage activity (pBR322 plasmid DNA [1]): remarkable photocleavage activity

Molecule: Cc1ccc(-c2nn(-c3ccccc3)cc2C=C(C#N)C(=O)Nc2nccs2)cc1 [Compound 3d, 2-Cyano-3-(1-phenyl-3-(p-tolyl)-1H-pyrazol-4-yl)-N-(thiazol-2-yl)acrylamide]
- DNA photocleavage activity (pBR322 plasmid DNA [1]): non-detectable DNA cleavage

— PMC11414077, “Novel thiazole-based cyanoacrylamide derivatives: DNA cleavage, DNA/BSA binding properties and their anticancer behaviour against colon and breast cancer cells” (BMC Chemistry, 2024)
